# Measurements taken from the supplement of paper PMC4604168 (melanoma cell lines).
# Some of the results follow. Many values rest on one well or one pass, so single values are uncertain.
# Tests used:
# Experiment in all cases: cell count relative to DMSO control; melanoma cells; higher = more viable cells
# Settings in all cases: library dose: standard library concentration; 72 h
# SkMel28 = test system: SkMel28
# SkMel2 = test system: SkMel2
# SkMel30 = test system: SkMel30
# SkMel5 = test system: SkMel5
# UACC257 = test system: UACC257
# UACC62 = test system: UACC62
# WM115 = test system: WM115
# WM1716 = test system: WM1716
# WM1745 = test system: WM1745
# WM3526 = test system: WM3526
# 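Also: cells treated in 1,536-well plates, then fixed and DAPI-stained, with nuclei counted from automated high-throughput microscope images.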
SMILES,cell count (SkMel28),cell count (SkMel2),cell count (SkMel30),cell count (SkMel5),cell count (UACC257),cell count (UACC62),cell count (WM115),cell count (WM1716),cell count (WM1745),cell count (WM3526)
"CC(C)(C)c1cnc(CSc2cnc(NC(=O)C3CCNCC3)s2)o1 + O=C(O)c1ccc(-c2c[nH]c3ncc(-c4ccccc4)cc23)cc1C1CCCC1 [GSK650394] (first compound 0.05 µM, partner dose 0.8 µM)",48.6%,74.6%,84.8%,78.1%,73.6%,61.3%,93%,79.2%,83.5%,81.8%
"NC(=O)c1ccc(N(C(N)=O)c2c(F)cccc2F)nc1-c1ccc(F)cc1F + CN(C)S(=O)(=O)c1ccc2c(c1)/C(=C/c1cc3c([nH]1)CCCC3)C(=O)N2 [SU6656] (first compound 2 µM, partner dose 2 µM)",57.4%,72.8%,70.5%,86.3%,85.2%,66.2%,41.9%,56.6%,62%,79%
"CCc1ccc(CCOc2ccc(CC3SC(=O)NC3=O)cc2)nc1 (stereo not given) [pioglitazone] + COC(=O)c1sccc1S(=O)(=O)Nc1ccc(Nc2ccccc2)cc1OC [GSK0660] (first compound 10 µM, partner dose 5 µM)",78.1%,110%,110%,106%,96.6%,119%,97.4%,96.1%,97.9%,98.2%
"CCc1ccc(CCOc2ccc(CC3SC(=O)NC3=O)cc2)nc1 (stereo not given) [pioglitazone] + COc1ccc(COc2ccc(Cc3cnc(N)nc3N)cc2OC)cc1 [GW2580] (first compound 10 µM, partner dose 5 µM)",52.4%,96.7%,102%,82.5%,79%,113%,105%,95%,77.5%,94.5%
"NC(=O)c1ccc(N(C(N)=O)c2c(F)cccc2F)nc1-c1ccc(F)cc1F + CC(=O)O[C@@]12CO[C@@H]1C[C@H](O)[C@@]1(C)C(=O)[C@H](O)C3=C(C)[C@@H](OC(=O)[C@H](O)[C@@H](NC(=O)OC(C)(C)C)c4ccccc4)C[C@@](O)([C@@H](OC(=O)c4ccccc4)[C@H]21)C3(C)C [Docetaxel] (first compound 2 µM, partner dose 0.0005 µM)",22.7%,16.6%,54.5%,43.8%,68.1%,48.7%,36.7%,37.4%,37.6%,49.2%
"CCCCCCCCc1ccc(CCC(N)(CO)CO)cc1 [fingolimod] + COc1cc(Nc2ncc(F)c(Nc3ccc4c(n3)NC(=O)C(C)(C)O4)n2)cc(OC)c1OC [Tamatinib] (first compound 10 µM, partner dose 2 µM)",0.957%,3.02%,15.5%,29.4%,48.6%,14.6%,9.06%,16.4%,4.36%,13.3%
